Laboratory results reported in the supplement of paper PMC5998384.

Experiments:
[1] = test system: HeLa Kyoto; assay: solubility change mitosis vs G1/S (difference of NP-40 vs SDS log2 ratios) (log2 ratio difference); higher = more soluble in mitosis
[2] = test system: HeLa Kyoto; assay: solubility in G1/S (NP-40 vs SDS abundance) (log2 ratio); higher = more soluble; conditions: cell cycle stage: G1/S
[3] = test system: HeLa Kyoto; assay: thermal stability score vs G1/S (z-score of summed log2 fold changes over temperatures); higher = more thermally stable than in G1/S
[4] = test system: HeLa Kyoto; assay: melting temperature (median over replicates), in situ; higher = more thermally stable
[5] = cell cycle stage: early G1 (4.5 h after nocodazole release)
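For melting temperature (median over replicates), in situ in this document: HeLa Kyoto cells synchronized by double thymidine or nocodazole block, proteins quantified by TMT10plex mass spectrometry, three independent biological replicates.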
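For solubility change mitosis vs G1/S (difference of NP-40 vs SDS log2 ratios) in this document: synchronized HeLa Kyoto cells (double thymidine block for G1/S, nocodazole release for mitosis), protein amounts in NP-40 versus SDS lysates quantified by mass spectrometry, three biological replicates.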
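For solubility in G1/S (NP-40 vs SDS abundance) in this document: HeLa Kyoto cells arrested at G1/S by double thymidine block, proteins quantified by TMT10plex mass spectrometry in mild NP-40 versus SDS extracts, three biological replicates.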
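For thermal stability score vs G1/S (z-score of summed log2 fold changes over temperatures) in this document: synchronized HeLa Kyoto cells, proteins quantified by TMT10plex mass spectrometry, three biological replicates, mitosis taken 0.5 h after nocodazole release, G1/S directly after double thymidine block.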

Sequence | solubility change mitosis (log2) [1] | solubility in G1/S (log2) [2] | thermal stability score [3, 5] | thermal stability score ([3]; cell cycle stage: mitosis) | melting temperature ([4]; cell cycle stage: G1/S) [°C] | melting temperature ([4]; cell cycle stage: mitosis) [°C]
MSARLPVLSPPRWPRLLLLSLLLLGAVPGPRRSGAFYLPGLAPVNFCDEEKKSDECKAEIELFVNRLDSVESVLPYEYTAFDFCQASEGKRPSENLGQVLFGERIEPSPYKFTFNKKETCKLVCTKTYHTEKAEDKQKLEFLKKSMLLNYQHHWIVDNMPVTWCYDVEDGQRFCNPGFPIGCYITDKGHAKDACVISSDFHERDTFYIFNHVDIKIYYHVVETGSMGARLVAAKLEPKSFKHTHIDKPDCSGPPMDISNKASGEIKIAYTYSVSFEEDDKIRWASRWDYILESMPHTHIQWFSIMNSLVIVLFLSGMVAMIMLRTLHKDIARYNQMDSTEDAQEEFGWKLVHGDIFRPPRKGMLLSVFLGSGTQILIMTFVTLFFACLGFLSPANRGALMTCAVVLWVLLGTPAGYVAARFYKSFGGEKWKTNVLLTSFLCPGIVFADFFIMNLILWGEGSSAAIPFGTLVAILALWFCISVPLTFIGAYFGFKKNAIEHPVRTNQIPRQIPEQSFYTKPLPGIIMGGILPFGCIFIQLFFILNSIWSHQMYYMFGFLFLVFIILVITCSEATILLCYFHLCAEDYHWQWRSFLTSGFTAVYFLIYAVHYFFSKLQITGTASTILYFGYTMIMVLIFFLFTGTIGFFACFWFVTKIYSVVKVD [TM9SF2] | -0.0605 | -0.234 | 1.95 | 0.195 | 54.7 | 55.3
MTAPEKPVKQEEMAALDVDSGGGGGGGGGHGEYLQQQQQHGNGAVAAAAAAQDTQPSPLALLAATCSKIGPPSPGDDEEEAAAAAGAPAAAGATGDLASAQLGGAPNRWEVLSATPTTIKDEAGNLVQIPSAATSSGQYVLPLQNLQNQQIFSVAPGSDSSNGTVSSVQYQVIPQIQSADGQQVQIGFTGSSDNGGINQESSQIQIIPGSNQTLLASGTPSANIQNLIPQTGQVQVQGVAIGGSSFPGQTQVVANVPLGLPGNITFVPINSVDLDSLGLSGSSQTMTAGINADGHLINTGQAMDSSDNSERTGERVSPDINETNTDTDLFVPTSSSSQLPVTIDSTGILQQNTNSLTTSSGQVHSSDLQGNYIQSPVSEETQAQNIQVSTAQPVVQHLQLQESQQPTSQAQIVQGITPQTIHGVQASGQNISQQALQNLQLQLNPGTFLIQAQTVTPSGQVTWQTFQVQGVQNLQNLQIQNTAAQQITLTPVQTLTLGQVAAGGAFTSTPVSLSTGQLPNLQTVTVNSIDSAGIQLHPGENADSPADIRIKEEEPDPEEWQLSGDSTLNTNDLTHLRVQVVDEEGDQQHQEGKRLRRVACTCPNCKEGGGRGTNLGKKKQHICHIPGCGKVYGKTSHLRAHLRWHSGERPFVCNWMYCGKRFTRSDELQRHRRTHTGEKKFVCPECSKRFMRSDHLAKHIKTHQNKKGIHSSSTVLASVEAARDDTLITAGGTTLILANIQQGSVSGIGTVNTSATSNQDILTNTEIPLQLVTVSGNETME [SP3] | 0.162 | -0.349 | -1.44 | -3.87 |  | 52.5
